Measurements: article PMC2742306 (Molecular cell, 2009)

Molecular target: the molecule itself
Test: SEC

B1: E. coli DegS (residues 27–355) lacking the wild-type membrane anchor, N-terminal His6 tag (enzyme, UniProt P0AEE3 27-355, looked up)
chain: RSLNPLSTPQFDSTDETPASYNLAVRRAAPAVVNVYNRGLNTNSHNQLEIRTLGSGVIMDQRGYIITNKHVINDADQIIVALQDGRVFEALLVGSDSLTDLAVLKINATGGLPTIPINARRVPHIGDVVLAIGNPYNLGQTITQGIISATGRIGLNPTGRQNFLQTDASINHGNSGGALVNSLGELMGINTLSFDKSNDGETPEGIGFAIPFQLATKIMDKLIRDGRVIRGYIGIGGREIAPLHAQGGGIDQLQGIVVNEVSPDGPAANAGIQVNDLIISVDNKPAISALETMDQVAEIRPGSVIPVVVMRDDKQLTLQVTIQEYPATN
B1 was tested. Which “stoichiometry N” value did it give?
The value was 3.
